The campaign covered roughly 390,000 compounds. About 17,000 (4.4%) were called active. The inconclusive results got no clear call from the source; some entries with a clear call stand among them for comparison. The call rests on the fitted dose curve; in most records, active means well fitted inhibition curve with a large enough effect; inconclusive means small, poorly fitted or top-dose-only effect; inactive means no such curve, though single readings can be large or run the other way. Where the call is inconclusive, the potency comes from a doubtful curve fit. Peptide text beside a SMILES is read from it.
molecular target: Lysine-specific demethylase 4A (Homo sapiens) (UniProt O75164); experiment: qHTS Assay for Inhibitors of JMJD2A-Tudor Domain; conditions: AlphaScreen JMJD2A-Tudor / H3K4me3 peptide binding; activity change, negative = inhibition: at 114 µM (top of the series); further: nearly all actives have a fitted effect of over 50% in size
On the % scale 0 is the no-effect control and ±100 the full control effect; potency means the concentration at half of the fitted maximal effect; tags describe the fitted curve by direction and shape.

Chain of UniProt O75164 (O75164 whole entry, looked up, the tested form may be a part): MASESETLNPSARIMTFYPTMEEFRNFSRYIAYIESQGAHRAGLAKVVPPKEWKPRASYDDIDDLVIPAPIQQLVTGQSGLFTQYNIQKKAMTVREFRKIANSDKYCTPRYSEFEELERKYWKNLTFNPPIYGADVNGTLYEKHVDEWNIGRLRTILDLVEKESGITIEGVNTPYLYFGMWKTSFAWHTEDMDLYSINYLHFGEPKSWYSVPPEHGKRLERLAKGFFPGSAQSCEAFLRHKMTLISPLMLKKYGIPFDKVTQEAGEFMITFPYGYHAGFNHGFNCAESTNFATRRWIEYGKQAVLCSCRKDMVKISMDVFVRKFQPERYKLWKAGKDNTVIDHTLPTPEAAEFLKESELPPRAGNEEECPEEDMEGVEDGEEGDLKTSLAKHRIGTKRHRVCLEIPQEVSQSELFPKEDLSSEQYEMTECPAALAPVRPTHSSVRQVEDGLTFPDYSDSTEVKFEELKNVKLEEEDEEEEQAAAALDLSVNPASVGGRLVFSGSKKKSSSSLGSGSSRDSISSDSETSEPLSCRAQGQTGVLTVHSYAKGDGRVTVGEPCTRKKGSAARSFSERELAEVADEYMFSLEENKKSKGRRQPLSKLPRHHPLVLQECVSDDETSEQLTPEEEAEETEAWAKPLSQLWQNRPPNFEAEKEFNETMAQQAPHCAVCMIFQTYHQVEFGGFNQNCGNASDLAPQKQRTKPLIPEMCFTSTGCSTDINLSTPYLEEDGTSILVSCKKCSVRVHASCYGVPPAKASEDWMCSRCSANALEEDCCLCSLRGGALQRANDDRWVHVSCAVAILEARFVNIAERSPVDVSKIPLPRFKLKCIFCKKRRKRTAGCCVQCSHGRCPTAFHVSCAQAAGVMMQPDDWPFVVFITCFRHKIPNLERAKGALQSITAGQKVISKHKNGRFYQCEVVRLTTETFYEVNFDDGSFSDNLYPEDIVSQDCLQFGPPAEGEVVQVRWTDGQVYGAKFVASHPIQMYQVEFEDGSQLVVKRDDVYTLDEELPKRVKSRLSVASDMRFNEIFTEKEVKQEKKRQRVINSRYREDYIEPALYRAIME

Row | SMILES | Potency | activity change, negative = inhibition
1 | O=S(=O)(Nc1cccc(F)c1)c1ccc2[nH]c3c(c2c1)CCCCC3 | inconclusive: 39.8 µM [inhibitor, full curve] | –
2 | COc1cccc(C(=O)Oc2c(CN3CCOCC3)cc(Cl)c3cccnc23)c1 | active: 50.1 µM | –
3 | COc1cc([N+](=O)[O-])ccc1NC(=O)Nn1cnnc1 | – | inactive: -11.7%
4 | CCCCC(=O)OCC(=O)N1N=C(c2c[nH]c3ccccc23)C(O)C1c1ccc(OC)cc1 (stereo not given) | inconclusive: 50.1 µM [inhibitor, partial curve] | –
5 | Cc1cccc(NC(=O)CSc2nc3ccccc3c3nc(CCc4c(C)n[nH]c4C)nn23)c1 | inconclusive: 56.2 µM [inhibitor, partial curve] | –
6 | COc1ccc(SC[C@H](Cc2ccccc2)N2CCN(CCc3ccccc3)CCC2=O)cc1 | inconclusive: 31.6 µM [inhibitor, full curve, poor fit] | –
7 | Oc1ccc(Cl)cc1C=NN1CCCCCC1 | active: 56.2 µM | –
8 | Cc1c(C(=O)NCC(c2ccco2)N(C)C)oc2c(Cl)cccc12 (stereo not given) | inconclusive: 39.8 µM [inhibitor, full curve, poor fit] | –
9 | O=C(c1cc(-c2cccc(O)c2)on1)N1CCN(C(c2ccccc2)c2ccccc2)CC1 | inconclusive: 44.7 µM [inhibitor, partial curve] | –
10 | Cc1ccc(NC(=S)Nc2ccc3nc(-c4ccccn4)c(-c4ccccn4)nc3c2)cc1C | inconclusive: 22.4 µM [inhibitor, full curve] | –
11 | CN(C)c1ccc(NC(N)=S)cc1 | – | inactive: -31.9%
12 | COc1ccc(CN=C2NN=C(c3ccccc3)CS2)cc1 | inconclusive: 89.1 µM [inhibitor, partial curve] | –
13 | Cc1cc(C(=O)CN2C(=O)c3ccccc3S2(=O)=O)c(C)n1CC1CCCO1 (stereo not given) | inconclusive: 20 µM [inhibitor, partial curve] | –
14 | O=C(OCCn1c(=S)sc2ccccc21)c1ccccc1 | – | inactive: 11.8%
15 | COc1ccccc1N1CCN(C(=O)c2ccc(-c3ccc(Cl)cc3)o2)CC1 | inconclusive: 35.5 µM [inhibitor, full curve] | –
16 | COc1ccc(O)c(/C=N/Nc2nc(Nc3ccccc3)nc(-n3nc(C)cc3C)n2)c1 | inconclusive: 39.8 µM [inhibitor, full curve] | –
17 | CS(=O)(=O)N(CCc1ccccc1)CC(=O)NCc1ccc(Cl)cc1 | inconclusive: 10 µM [inhibitor, full curve, poor fit] | –
18 | COC(=O)c1cc(=O)n(Cc2ccc(F)cc2)c(=Nc2ccccc2)s1 | inconclusive: 39.8 µM [inhibitor, partial curve] | –
19 | Cc1cc(C)n(CC(=O)N/N=C/c2cc(Br)cc([N+](=O)[O-])c2O)n1 | inconclusive: 56.2 µM [inhibitor, partial curve] | –
20 | CCOC(=O)/C(=C\c1ccc(Cl)cc1)c1nc2sc(C)c(C)c2c(=O)[nH]1 | inconclusive: 44.7 µM [inhibitor, single point] | –

Row | SMILES | Potency | activity change, negative = inhibition
21 | O=C(/C=C/c1ccccc1)N1CCN(c2ccc([N+](=O)[O-])c(N3CCOCC3)c2)CC1 | inconclusive: 50.1 µM [inhibitor, partial curve] | –
22 | Cc1ccc(-n2c(C)cc(C(=O)COC(=O)c3c(C)noc3C)c2C)cc1 | inconclusive: 31.6 µM [inhibitor, full curve, poor fit] | –
23 | CCN(c1ccccc1)S(=O)(=O)c1ccc2[nH]cc(C(=O)N3CCOCC3)c(=O)c2c1 | inconclusive: 89.1 µM [inhibitor, single point] | –
24 | Cc1nc(/C=[N+](\[O-])C(C)(C)/C=N/O)n(O)c1C | active: 7.94 µM | –
25 | COC(=O)c1cc(S(=O)(=O)N2CCN(c3cccc(C)c3C)CC2)c[nH]1 | inconclusive: 89.1 µM [inhibitor, partial curve] | –
26 | Cc1cc(C)nc(NNS(=O)(=O)c2c(F)cc(F)cc2Br)n1 | inconclusive: 11.2 µM [inhibitor, partial curve] | –
27 | N/C(=N\OC(=O)Cc1ccc([N+](=O)[O-])cc1)c1ccccn1 | inconclusive: 44.7 µM [inhibitor, partial curve] | –
28 | CCOc1ccc(OCC(=O)Nc2ccccc2N2CCCC2)cc1 | inconclusive: 44.7 µM [inhibitor, partial curve] | –
29 | O=C(c1ccc(CS(=O)(=O)c2ccc(Br)cc2)o1)N1CCN(c2ccccn2)CC1 | inconclusive: 63.1 µM [inhibitor, partial curve, poor fit] | –
30 | COc1cc(OC)c(/C=N/n2c(C3CCCCC3)n[nH]c2=S)c(OC)c1 | active: 3.98 µM | –
31 | CC1CCN(S(=O)(=O)c2ccc3c(c2)N(CC(=O)NCc2cccnc2)C(=O)CS3)CC1 | inconclusive: 15.8 µM [inhibitor, full curve] | –
32 | COC(=O)[C@H](Cc1ccccc1)NC(=O)[C@@H](N)CC(=O)O (H-Asp-Phe-OMe) | inconclusive: 89.1 µM [inhibitor, single point] | –
33 | COc1ccc(-n2c(Cc3cccn3C)nnc2SCC(=O)Nc2ccccc2)cc1 | inconclusive: 56.2 µM [inhibitor, partial curve] | –
34 | NC(=O)CSC1=N/C(=C\c2ccco2)C(=O)N1c1ccc(OC(F)F)cc1 | inconclusive: 56.2 µM [inhibitor, partial curve] | –
35 | N#Cc1c(Sc2ncc(C(F)(F)F)cc2Cl)nsc1C/C=N\OCc1c(F)cccc1Cl | inconclusive: 56.2 µM [inhibitor, partial curve] | –
36 | C=C(C)COc1ccc(-c2nc(N)nc(C(F)(F)F)c2-c2ccc(OC)cc2)c(O)c1 | inconclusive: 28.2 µM [inhibitor, full curve] | –
37 | CCOc1ccc(N(CC)S(=O)(=O)c2cccc3nsnc23)cc1 | inconclusive: 39.8 µM [inhibitor, partial curve] | –
38 | CSc1sccc1/C=N/O | – | inactive: 9.72%
39 | C[C@@H]1CN([C@@H](C)CO)C(=O)Cc2cc(NC(=O)Nc3ccc(F)cc3)ccc2O[C@@H]1CN(C)Cc1ccc(Cl)c(Cl)c1 | inconclusive: 20 µM [inhibitor, full curve] | –
40 | COc1cc(CNCCNC(=O)c2cccs2)cc(OC)c1OC | active: 28.2 µM | –

From PubChem BioAssay AID504339 (National Center for Advancing Translational Sciences (NCATS), 2011)
